# Reference: PubChem BioAssay AID1347073 (National Center for Advancing Translational Sciences (NCATS), 2019)
# Screen size: about 45,000 compounds; about 200 (0.44%) were called active. Another 7% or so got no clear call; they are omitted. The call rests on the fitted dose curve; in most records, active means well fitted activation curve with a large enough effect; inconclusive means small, poorly fitted or top-dose-only effect; inactive means no such curve, though single readings can be large or run the other way. The list shows a part of the results.
# Assay: qHTS of TDP-43 Inhibitors: NCGC Sytravon Library Screen; further: nearly all actives have a fitted effect of over 55% in size; on growth rescue (activation): 0% is about no effect
# Conditions: yeast TDP-43 toxicity rescue, BacTiter-Glo growth, 24 h; series mostly up to 46.1 µM; growth rescue (activation): at the top concentration
# Procedure, shortened: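 TDP-43-expressing yeast, pregrown in raffinose, seeded at OD600 0.02 in galactose medium with compound for 24 hr at 30 deg C. Growth read by BacTiter-Glo luminescence, so rescue of toxicity appears as activation.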
# Potency means the concentration at half of the fitted maximal effect.
SMILES,growth rescue (activation),Potency
O=C(NC(c1ccc(F)cc1)c1ccc2ccccc2n1)C1CCN(CCOc2ccc(F)cc2)CC1 (stereo not drawn),inactive: 1.5%,
Cc1c(/C(O)=C2\C(=O)C(=O)N(CCN(C)C)C2c2ccccc2)cnn1-c1ccccc1 (stereo not drawn),inactive: -3.85%,
O=C(O)c1ccc(N/N=C/c2ccc3c(c2)OCO3)cc1,inactive: -37.4%,
O=C(OC1Cn2c(=O)ccc(=O)n2C1)c1ccc([N+](=O)[O-])cc1,inactive: 8.64%,
CCS(=O)(=O)NCc1cn2ccsc2n1,inactive: 3.52%,
Cc1ccc(S(=O)(=O)NCC(=O)Nc2cccnc2)cc1C,inactive: -2.73%,
Cc1ccc(CN2CCN(Cc3cn(C)nc3-c3ccccc3)CC2CCO)o1 (stereo not drawn),inactive: 3.69%,
COc1ccccc1N1CCN(C2CCCN(C(=O)CCc3ccccn3)C2)CC1 (stereo not drawn),inactive: 11.2%,
O=C(CCNC(=O)c1ccccc1Cl)NN=Cc1ccco1,inactive: 19.4%,
CCOC(=O)c1ccc(CNC(=O)CSc2nnnn2-c2ccc(Cl)cc2)o1,inactive: 25.7%,
CC(C)CNC1=C(C(=S)Nc2ccccc2)C(=O)CC(C)(C)C1,inactive: 26.9%,
CC(C)C1NC(=S)N(C2CCCCC2)C1=O (stereo not drawn),inactive: 20.7%,
CCc1nnc(NC(=O)CSc2sc3c(O)cc(=O)[nH]c3c2C#N)s1,inactive: 6.45%,
CCNc1nc(NCC)nc(N(C#N)C(C)C)n1,inactive: 19.3%,
CCOC(=O)N1CCN(C(=O)COC(=O)c2ccc(O)cc2O)CC1,inactive: -13.6%,
COc1ccc(S(=O)(=O)N2CCOCC2)cc1NC(=O)CSc1nnc(NC2CC2)s1,inactive: 8.11%,
COc1ccccc1C(=O)N1CCN(S(=O)(=O)c2ccccc2)CC1,inactive: -0.521%,
COc1ccccc1NC(=O)/C(C#N)=C/c1cc([N+](=O)[O-])ccc1N1CCCC1,inactive: -16.5%,
Fc1nc(F)c(F)c(NCCCNc2c(F)c(F)nc(F)c2F)c1F,inactive: 27.9%,
COc1ccc(NC(=O)C(NC(=O)c2ccc(=O)[nH]c2)c2ccc(OC)cc2)cc1 (stereo not drawn),inactive: 10.2%,
Cc1cc(Br)cc(C)c1NC(=O)c1ccc(C#N)cc1F,inactive: 5.58%,
Cc1onc(C(=O)NC(C)c2ccccc2)c1[N+](=O)[O-] (stereo not drawn),inactive: -0.142%,
COc1cccc(CN(C)C(c2ccccc2)c2ccccc2)c1OC,inactive: -10.1%,
COc1ccc(-c2nc3cc(NC(=S)NC(=O)Cc4ccccc4)ccc3o2)cc1,inactive: 13.1%,
CC1(C(=O)Nc2cccnc2)Cc2c(-c3ccc4c(c3)OCO4)ccnc2O1 (stereo not drawn),inactive: -0.0916%,
CCCS(=O)(=O)NC(=O)C1(C)CCCN(C(=O)c2cc(-c3ccccc3)cs2)C1 (stereo not drawn),inactive: -8.33%,

SMILES,growth rescue (activation),Potency
O=c1cc(-c2ccco2)oc2c1ccc1ccccc12,inactive: 0.725%,
OCCC1CN(Cc2cccc(OC3CCCC3)c2)CCN1Cc1ccsc1 (stereo not drawn),inactive: 9.23%,
CN(CCOc1ccccc1)C(=O)C1CCC(=O)N(CCc2ccc(Cl)cc2)C1 (stereo not drawn),inactive: 14.1%,
CC(NC(=O)c1ccc([N+](=O)[O-])cc1Cl)C1CC2CCC1C2 (stereo not drawn),inactive: 34.6%,
COc1ccc(OC)c(-n2c(-c3cccc(S(=O)(=O)N(C)C)c3)n[nH]c2=S)c1,inactive: 3.15%,
Fc1ccc(COc2ccccc2CNc2nn[nH]n2)cc1,inactive: -2.34%,
Cc1cccc(NC(=S)NC(=O)c2oc3ccccc3c2C)n1,inactive: -0.905%,
O=C(NCc1ccc(Cl)cc1)C1CCN(S(=O)(=O)c2cccc3nonc23)CC1,inactive: -7.04%,
O=C(COc1ccc(Cl)cc1)NNC(=O)c1ccc(=O)[nH]c1,inactive: 8.03%,
OC[C@@H]1CN(C2CCCC2)C[C@H](n2cnc3c(NC4CCC4)ncnc32)O1,inactive: 12%,
CC(C)c1nnc(NC(=O)CN(C)S(=O)(=O)c2ccc3c(c2)OCCO3)s1,inactive: 9.58%,
Cc1cc(C)c(CSc2nnnn2-c2ccc(C(=O)O)cc2)c(C)c1,inactive: 5.69%,
O=C(Cn1cnc2cc([N+](=O)[O-])ccc2c1=O)NC(=O)NCc1ccccc1,inactive: -3.71%,
CC1CCN(Cc2c(C(=O)N/N=C/c3ccccc3O)nnn2-c2nonc2N)CC1,inactive: 13.3%,
O=C(COC(=O)c1ccc(NS(=O)(=O)c2cccs2)cc1O)NC1CCCCC1,inactive: 20.5%,
COCCNc1nc(NCCN2CCNC2=O)c2sccc2n1,inactive: -14.8%,
CCCCOC(=O)C1=C(C)NC(=O)NC1c1ccc2c(c1)OCO2 (stereo not drawn),inactive: 4.11%,
O=C(COc1ccccc1[N+](=O)[O-])Nc1cc(C(=O)O)cc(C(=O)O)c1,inactive: 6.12%,
O=C(NNC(=O)c1cc2ccccc2oc1=O)c1ccccc1,inactive: -4.21%,
COc1ccc2c(/C=N/NS(=O)(=O)c3ccc(C)cc3)c[nH]c2c1,inactive: 24.5%,
CC(=O)c1ccc(N(C(=O)Cn2nnc3ccccc32)C(C(=O)NCc2ccccc2)c2ccccn2)cc1 (stereo not drawn),inactive: 3.3%,
CCCN(CCC)C(=O)c1ccc2c(=O)n(Cc3ccco3)c(=S)[nH]c2c1,inactive: 18%,
Cc1ccc(S(=O)(=O)N(C)C)cc1-n1c(SCC(=O)Nc2ccccc2)nc2ccccc2c1=O,inactive: 12.7%,
CCc1ccccc1NC(=O)CSc1nnc(CCNC(=O)OC(C)(C)C)o1,inactive: 8.52%,
CC(C)(C)c1ccc(S(=O)(=O)/N=C2\C=C(NS(=O)(=O)c3ccccc3)C(=O)c3ccccc32)cc1,inactive: 22.7%,
O=C(NNS(=O)(=O)c1ccccc1[N+](=O)[O-])c1cc2ccccc2cc1O,inactive: -5.59%,

SMILES,growth rescue (activation),Potency
COc1ccc(S(=O)(=O)c2c[nH]c(=S)[nH]c2=O)cc1Cl,inactive: -2.27%,
O=C(CSc1n[nH]c(-c2ccccc2Cl)n1)NCc1cccc(C(=O)O)c1,inactive: 3.42%,
Cc1ccc(C)c(NC(=S)N(C2CCCCC2)C(C)c2cccnc2)c1 (stereo not drawn),inactive: 11.3%,
COc1ccc(O)c(C(=O)c2cc(SCC(=O)O)c3nc4sc5c(c4c(=O)n3c2)CCCC5)c1,inactive: 26.5%,
CCc1nc2c(OCc3ccccc3)cccn2c1N(C)C(=O)C(C)C,inactive: -0.88%,
CC(C(=O)Nc1cccc([N+](=O)[O-])c1)N(c1ccccc1)S(C)(=O)=O (stereo not drawn),inactive: 9.68%,
CCOC(=O)c1nc2ccccc2c(C)c1C,inactive: -3.4%,
COCCNc1nnc(SC(C)C(=O)Nc2ccc(-c3nc4ccc(C)cc4s3)cc2)s1 (stereo not drawn),inactive: 9.88%,
O=C(c1csc2ccccc12)N1CCN(c2ccccn2)CC1,inactive: -2.44%,
COC(=O)c1ccc2nc(NC(=O)COC(=O)CSc3nc(C)cc(C)n3)sc2c1,inactive: -14.8%,
COc1ccc(-n2c(=S)[nH]c3cc(C(=O)N4CCN(c5ccccc5)CC4)ccc3c2=O)cc1,inactive: -2.41%,
COc1cc(NC(=O)C2(C)CCCN(C(C)C)C2)cc(OC)c1OC (stereo not drawn),inactive: 8.09%,
O=C(NCC1CCN(C(=O)c2c(F)c(F)c(F)c(F)c2F)CC1)c1c(F)c(F)c(F)c(F)c1F,,active: 17.8 µM
CC(Sc1nc(-c2ccccc2)cc(C(F)(F)F)n1)C(=O)Nc1sc2c(c1C(N)=O)CCC2 (stereo not drawn),inactive: 16.4%,
O=[N+]([O-])c1ccccc1-c1ccc(C(=S)N2CCCC2)o1,inactive: 3.05%,
O=C(COC(=O)CCOc1ccccc1)Nc1ncc(Cl)cc1Cl,inactive: 26.4%,
COc1ccc(CCNC(=O)c2cc(=O)[nH]c3ccc(Br)cc23)cc1OC,inactive: 14.3%,
O=C(COC(=O)Cn1cnc2ccccc21)Nc1cccc([N+](=O)[O-])c1,inactive: -3.83%,
Cc1cc(C)n2nc(C(=O)N/N=C/c3cccs3)nc2n1,inactive: -2.76%,
N#C/C(=C\c1ccc(/C=C(/C#N)c2nn(CCO)c(N)c2C#N)cc1)c1nn(CCO)c(N)c1C#N,inactive: 0.27%,
CCOC(=O)c1[nH]ncc1CN1CCCC(C(=O)c2ccc(OC)c(OC)c2)C1 (stereo not drawn),inactive: 16.5%,
CCN(NC(=O)C(O)(c1ccccc1)c1ccccc1)C(=O)c1ccccc1,inactive: 21%,
O=C(CSc1nnc(CNc2ccc(F)cc2)n1CC1CCCO1)N1CCOCC1 (stereo not drawn),inactive: -1.72%,
CCN1C(=C(C#N)C#N)C=Cc2cc(C)ccc21,inactive: 7.43%,
CN(CC(=O)Nc1ccccc1Cl)CC(=O)N(C)c1c(N)n(Cc2ccccc2)c(=O)[nH]c1=O,inactive: -8.1%,
CC(C)n1cc(/C=C2/NC(=O)NC2=O)c2ccccc21,inactive: -11.5%,

SMILES,growth rescue (activation),Potency
CCCS(=O)(=O)NC(=O)C1(C)CCN(C(=O)c2cc(OC)c(OC)c(OC)c2)C1 (stereo not drawn),inactive: 4.59%,
COc1ccc(C(=O)OCC(=O)N2CCC(C)CC2)cc1S(=O)(=O)N1CCOCC1,inactive: 24.1%,
COc1ccc(NS(=O)(=O)c2ccc(Cl)c(N)c2)cc1Br,inactive: -16.5%,
O=C(Cc1ccc(-n2cccc2)cc1)NCc1ccccc1Cl,inactive: 24.3%,
CCn1cnc2c1c(=O)n(Cc1ccc(C(=O)OC)cc1)c(=O)n2Cc1ccccc1,inactive: 16%,
CC(C)(C)c1ccc(C(=O)NCC(=O)N/N=C/c2ccccc2OCC(=O)O)cc1,inactive: 3.8%,
CCOc1ccccc1NC(=O)CN1CCC(NC(=O)c2ccccc2C)CC1,inactive: 2.91%,
CCOc1ccc(Oc2c(C)oc3cc(O)ccc3c2=O)cc1,inactive: 10.3%,
CCc1n[nH]c(=O)c2cc3cc(OC)ccc3n12,inactive: 21.5%,
COc1ccc(S(=O)(=O)N2CCN(c3ccccc3OC)CC2)cc1C(=O)N1CCCCC1,inactive: 11.7%,
Fc1ccccc1OCC1CCCN(Cc2nc(CC3CC3)no2)C1 (stereo not drawn),inactive: -6.87%,
COc1cccc(NC(=O)c2nc(SC)ncc2Cl)c1,inactive: 19.7%,
COC(=O)c1cc(-c2cc(OC)ccc2OC)nc2c1c(=O)n(C)c(=O)n2Cc1ccccc1,inactive: -0.811%,
Cc1ccc(NC(=O)COC(=O)c2nn(-c3ccc(Cl)cc3)cc2O)cc1,inactive: -1.77%,
CC(C)CN1C2CCCC1CC(NC(=S)NCc1ccco1)C2 (stereo not drawn),inactive: 10.6%,
COc1ccccc1CCC(=O)N1CCN(C(=O)c2ccccc2)CC1,inactive: -1.86%,
O=C(Nc1ccc(C(=O)O)cc1)/C(=C\c1ccc([N+](=O)[O-])cc1)NC(=O)c1ccc(Br)cc1,inactive: 2.78%,
Cc1nccn1CC(O)COc1ccc(Cl)cc1Cl (stereo not drawn),inactive: -5.56%,
COc1cccc(C(=O)CC(=O)C(=O)Nc2cccc([N+](=O)[O-])c2C)c1,inactive: 18.8%,
CC(=O)c1ccc(NC(=O)c2cc(C)nn2-c2ccccc2)cc1,inactive: 21.7%,
Cc1ccc(C(=O)Nc2nnn(C)n2)cc1,inactive: -3.31%,
COc1ccc(C(C)=O)cc1CC1(C)C(=O)Nc2ccc(OC(F)(F)F)cc21 (stereo not drawn),inactive: -13.9%,
CC1CC(C)CN(C(=O)COC(=O)CCC(=O)c2cccs2)C1 (stereo not drawn),inactive: -12.3%,
O=C(NCCCO)c1ccc(CSc2nc3ccccc3[nH]2)cc1,inactive: 9.06%,
CCCc1nc(SCC(=O)c2ccc3c(c2)NC(=O)CO3)[nH]c(=O)c1CC,inactive: -0.345%,
